# This is one part of the list. The list includes weakly bound sequences.
# Target: T1, MBP-FoxP3dN (UniProt Q99JB6)
# T1 sequence: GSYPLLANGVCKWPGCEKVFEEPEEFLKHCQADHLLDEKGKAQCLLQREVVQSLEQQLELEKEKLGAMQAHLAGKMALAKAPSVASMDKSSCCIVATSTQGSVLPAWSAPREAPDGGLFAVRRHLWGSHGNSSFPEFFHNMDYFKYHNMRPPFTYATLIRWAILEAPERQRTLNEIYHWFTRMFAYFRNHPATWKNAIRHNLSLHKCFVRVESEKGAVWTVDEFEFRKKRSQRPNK
# Experiment: PD-seq (MBP pull-down with sequencing)
# Conditions: 20 mM Tris-HCl pH 7.5, 100 mM NaCl, 1.5 mM MgCl2, 0.4 uM protein, 0.1 uM dsDNA library, 30 min, room temperature, amylose pull-down; high values mean tight binding; double strand, one strand shown
row,Sequence,binding signal (RPM ratio (pull-down/input))
1,GATGATTGTTCTCCCAGCTGATGAATTTCCTTGGTCGAGTAAACAAATTTTCCTAATCTTTCTGTTCAAGCGCCATCTAC,0.239
2,GATGATTGTTCTCCCAGCTGATGAATTATATAACTCGAGTAAACAAATTTTCCTAATCTTTCTGTTCAAGCGCCATCTAC,0.431
3,GATGATTGTTCTCCCAGCTGATGAATTCCGAGATTCGAGTAAACAAATTTTCCTAATCTTTCTGTTCAAGCGCCATCTAC,0.366
4,GATGATTGTTCTCCCAGCTGATGAATTACTCAAGTCGAGTAAACAAATTTTCCTAATCTTTCTGTTCAAGCGCCATCTAC,0.263
5,GATGATTGTTCTCCCAGCTGATGAATTTGCCTTATCGAGTAAACAAATTTTCCTAATCTTTCTGTTCAAGCGCCATCTAC,1.39
6,GATGATTGTTCTCCCAGCTGATGAATTCGAGCCGTCGAGTAAACAAATTTTCCTAATCTTTCTGTTCAAGCGCCATCTAC,0.378
7,GATGATTGTTCTCCCAGCTGATGAATTGGGGGCCTCGAGTAAACAAATTTTCCTAATCTTTCTGTTCAAGCGCCATCTAC,0.587
8,GATGATTGTTCTCCCAGCTGATGAATTTGATTTGTCGAGTAAACAAATTTTCCTAATCTTTCTGTTCAAGCGCCATCTAC,4.76
9,GATGATTGTTCTCCCAGCTGATGAATTGTCTCGGTCGAGTAAACAAATTTTCCTAATCTTTCTGTTCAAGCGCCATCTAC,0.31
10,GATGATTGTTCTCCCAGCTGATGAATTTTCTGCTTCGAGTAAACAAATTTTCCTAATCTTTCTGTTCAAGCGCCATCTAC,0.277
11,GATGATTGTTCTCCCAGCTGATGAATTAATTGTCTCGAGTAAACAAATTTTCCTAATCTTTCTGTTCAAGCGCCATCTAC,3.16
12,GATGATTGTTCTCCCAGCTGATGAATTAGGTCTATCGAGTAAACAAATTTTCCTAATCTTTCTGTTCAAGCGCCATCTAC,0.488
13,GATGATTGTTCTCCCAGCTGATGAATTCAATCACTCGAGTAAACAAATTTTCCTAATCTTTCTGTTCAAGCGCCATCTAC,0.553
14,GATGATTGTTCTCCCAGCTGATGAATTCAAGCGGTCGAGTAAACAAATTTTCCTAATCTTTCTGTTCAAGCGCCATCTAC,0.398
15,GATGATTGTTCTCCCAGCTGATGAATTTAGGTCTTCGAGTAAACAAATTTTCCTAATCTTTCTGTTCAAGCGCCATCTAC,0.709
16,GATGATTGTTCTCCCAGCTGATGAATTAATAGTCTCGAGTAAACAAATTTTCCTAATCTTTCTGTTCAAGCGCCATCTAC,0.677
17,GATGATTGTTCTCCCAGCTGATGAATTGTACTACTCGAGTAAACAAATTTTCCTAATCTTTCTGTTCAAGCGCCATCTAC,0.546
18,GATGATTGTTCTCCCAGCTGATGAATTAATGTGATCGAGTAAACAAATTTTCCTAATCTTTCTGTTCAAGCGCCATCTAC,0.811
19,GATGATTGTTCTCCCAGCTGATGAATTGCTTTAATCGAGTAAACAAATTTTCCTAATCTTTCTGTTCAAGCGCCATCTAC,0.464
20,GATGATTGTTCTCCCAGCTGATGAATTGCTGAGGTCGAGTAAACAAATTTTCCTAATCTTTCTGTTCAAGCGCCATCTAC,0.4

row,Sequence,binding signal (RPM ratio (pull-down/input))
1,GATGATTGTTCTCCCAGCTGATGAATTAGTTTCTTCGAGTAAACAAATTTTCCTAATCTTTCTGTTCAAGCGCCATCTAC,2.72
2,GATGATTGTTCTCCCAGCTGATGAATTGGTCGCGTCGAGTAAACAAATTTTCCTAATCTTTCTGTTCAAGCGCCATCTAC,0.614
3,GATGATTGTTCTCCCAGCTGATGAATTATCAATGTCGAGTAAACAAATTTTCCTAATCTTTCTGTTCAAGCGCCATCTAC,0.43
4,GATGATTGTTCTCCCAGCTGATGAATTGTTCTCCTCGAGTAAACAAATTTTCCTAATCTTTCTGTTCAAGCGCCATCTAC,0.415
5,GATGATTGTTCTCCCAGCTGATGAATTTATTATGTCGAGTAAACAAATTTTCCTAATCTTTCTGTTCAAGCGCCATCTAC,5.83
6,GATGATTGTTCTCCCAGCTGATGAATTCTCTGTATCGAGTAAACAAATTTTCCTAATCTTTCTGTTCAAGCGCCATCTAC,0.441
7,GATGATTGTTCTCCCAGCTGATGAATTGTAGGGATCGAGTAAACAAATTTTCCTAATCTTTCTGTTCAAGCGCCATCTAC,0.456
8,GATGATTGTTCTCCCAGCTGATGAATTGTCGGCATCGAGTAAACAAATTTTCCTAATCTTTCTGTTCAAGCGCCATCTAC,0.836
9,GATGATTGTTCTCCCAGCTGATGAATTAAGGTAGTCGAGTAAACAAATTTTCCTAATCTTTCTGTTCAAGCGCCATCTAC,0.394
10,GATGATTGTTCTCCCAGCTGATGAATTGTGCCTTTCGAGTAAACAAATTTTCCTAATCTTTCTGTTCAAGCGCCATCTAC,6.1
11,GATGATTGTTCTCCCAGCTGATGAATTTTTCGAATCGAGTAAACAAATTTTCCTAATCTTTCTGTTCAAGCGCCATCTAC,0.252
12,GATGATTGTTCTCCCAGCTGATGAATTGACGGAGTCGAGTAAACAAATTTTCCTAATCTTTCTGTTCAAGCGCCATCTAC,0.26
13,GATGATTGTTCTCCCAGCTGATGAATTGACAGGTTCGAGTAAACAAATTTTCCTAATCTTTCTGTTCAAGCGCCATCTAC,0.414
14,GATGATTGTTCTCCCAGCTGATGAATTCGACCGTTCGAGTAAACAAATTTTCCTAATCTTTCTGTTCAAGCGCCATCTAC,0.299
15,GATGATTGTTCTCCCAGCTGATGAATTAGTCAAATCGAGTAAACAAATTTTCCTAATCTTTCTGTTCAAGCGCCATCTAC,0.309
16,GATGATTGTTCTCCCAGCTGATGAATTCAATTCCTCGAGTAAACAAATTTTCCTAATCTTTCTGTTCAAGCGCCATCTAC,0.665
17,GATGATTGTTCTCCCAGCTGATGAATTGACATGGTCGAGTAAACAAATTTTCCTAATCTTTCTGTTCAAGCGCCATCTAC,0.404
18,GATGATTGTTCTCCCAGCTGATGAATTACTTTTATCGAGTAAACAAATTTTCCTAATCTTTCTGTTCAAGCGCCATCTAC,0.44
19,GATGATTGTTCTCCCAGCTGATGAATTCGTGCCCTCGAGTAAACAAATTTTCCTAATCTTTCTGTTCAAGCGCCATCTAC,0.554
20,GATGATTGTTCTCCCAGCTGATGAATTAGCGTGATCGAGTAAACAAATTTTCCTAATCTTTCTGTTCAAGCGCCATCTAC,1.16
